{
  "source": "the supplement of paper PMC8728848",
  "experiment_in_all_cases": "glycan array binding signal (z-score within array); higher = stronger binding",
  "settings_in_all_cases": "glycan notation: IUPAC condensed, linker removed",
  "key": {"[1]": {"biological_target": "Man(a1-2)Man(a1-3)[Man(a1-2)Man(a1-6)]Man(a1-6)[Man(a1-2)Man(a1-2)Man(a1-3)]Man", "summary_of_the_method": "(§1)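 Glycan array data were curated from 3228 arrays in the Consortium for Functional Glycomics database and kept only where the protein sequence was available. Glycan names were converted to IUPAC-condensed notation, and columns mapping to the same glycan were averaged. The binding signal is a within-array Z-score, averaged across arrays of the same protein sequence at different concentrations or buffers and across linkers. Negative Z-scores can be read as non-binding.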"}, "[2]": {"biological_target": "Man(a1-2)Man(a1-3)[Man(a1-2)Man(a1-6)]Man(a1-6)[Man(a1-2)Man(a1-2)Man(a1-3)]Man(b1-4)GlcNAc(b1-4)GlcNAc", "summary_of_the_method": "as §1"}, "[3]": {"biological_target": "Man(a1-2)Man(a1-3)[Man(a1-6)]Man(a1-6)[Man(a1-2)Man(a1-3)]Man(b1-4)GlcNAc(b1-4)GlcNAc", "summary_of_the_method": "as §1"}, "[4]": {"biological_target": "Man(a1-2)Man(a1-6)[Man(a1-3)]Man(a1-6)[Man(a1-2)Man(a1-2)Man(a1-3)]Man", "summary_of_the_method": "as §1"}, "[5]": {"biological_target": "Man(a1-2)Man(a1-6)[Man(a1-3)]Man(a1-6)[Man(a1-2)Man(a1-2)Man(a1-3)]Man(b1-4)GlcNAc(b1-4)GlcNAc", "summary_of_the_method": "as §1"}, "Man(a1-3)[Man(a1-6)]Man": {"biological_target": "Man(a1-3)[Man(a1-6)]Man", "summary_of_the_method": "as §1"}, "[6]": {"biological_target": "Man(a1-3)[Man(a1-6)]Man(a1-6)[Man(a1-2)Man(a1-3)]Man(b1-4)GlcNAc(b1-4)GlcNAc", "summary_of_the_method": "as §1"}, "[7]": {"biological_target": "Man(a1-3)[Man(a1-6)]Man(a1-6)[Man(a1-3)]Man", "summary_of_the_method": "as §1"}, "[8]": {"biological_target": "Man(a1-3)[Man(a1-6)]Man(a1-6)[Man(a1-3)]Man(b1-4)GlcNAc(b1-4)GlcNAc", "summary_of_the_method": "as §1"}, "[9]": {"biological_target": "Man(a1-3)[Man(a1-6)]Man(b1-4)GlcNAc(b1-4)GlcNAc", "summary_of_the_method": "as §1"}, "[10]": {"biological_target": "Man(a1-3)[Man(a1-6)]Man(b1-4)GlcNAc(b1-4)[Fuc(a1-6)]GlcNAc", "summary_of_the_method": "as §1"}, "Man(a1-6)Man": {"biological_target": "Man(a1-6)Man", "summary_of_the_method": "as §1"}, "Man(b1-4)GlcNAc": {"biological_target": "Man(b1-4)GlcNAc", "summary_of_the_method": "as §1"}, "MurNAc(b1-4)GlcNAc": {"biological_target": "MurNAc(b1-4)GlcNAc", "summary_of_the_method": "as §1"}, "Neu5Ac(a2-3)Gal": {"biological_target": "Neu5Ac(a2-3)Gal", "summary_of_the_method": "as §1"}, "[11]": {"biological_target": "Neu5Ac(a2-3)Gal(b1-3)GalNAc", "summary_of_the_method": "as §1"}, "[12]": {"biological_target": "Neu5Ac(a2-3)Gal(b1-3)GalNAc(b1-3)Gal(a1-4)Gal(b1-4)Glc", "summary_of_the_method": "as §1"}, "[13]": {"biological_target": "Neu5Ac(a2-3)Gal(b1-3)GalNAc(b1-4)[Neu5Ac(a2-3)]Gal(b1-4)Glc", "summary_of_the_method": "as §1"}, "[14]": {"biological_target": "Neu5Ac(a2-3)Gal(b1-3)GalNAc(b1-4)[Neu5Ac(a2-8)Neu5Ac(a2-3)]Gal(b1-4)Glc", "summary_of_the_method": "as §1"}, "[15]": {"biological_target": "Neu5Ac(a2-3)Gal(b1-3)GalNAc6S", "summary_of_the_method": "as §1"}, "[16]": {"biological_target": "Neu5Ac(a2-3)Gal(b1-3)GlcNAc", "summary_of_the_method": "as §1"}, "[17]": {"biological_target": "Neu5Ac(a2-3)Gal(b1-3)GlcNAc(b1-2)Man", "summary_of_the_method": "as §1"}, "[18]": {"biological_target": "Neu5Ac(a2-3)Gal(b1-3)GlcNAc(b1-2)Man(a1-3)[GlcNAc(b1-4)][Neu5Ac(a2-3)Gal(b1-3)GlcNAc(b1-2)Man(a1-6)]Man(b1-4)GlcNAc(b1-4)GlcNAc", "summary_of_the_method": "as §1"}, "[19]": {"biological_target": "Neu5Ac(a2-3)Gal(b1-3)GlcNAc(b1-2)Man(a1-3)[Neu5Ac(a2-3)Gal(b1-3)GlcNAc(b1-2)Man(a1-6)]Man(b1-4)GlcNAc(b1-4)GlcNAc", "summary_of_the_method": "as §1"}, "[20]": {"biological_target": "Neu5Ac(a2-3)Gal(b1-3)GlcNAc(b1-3)Gal(b1-3)GlcNAc", "summary_of_the_method": "as §1"}, "[21]": {"biological_target": "Neu5Ac(a2-3)Gal(b1-3)GlcNAc(b1-3)Gal(b1-4)GlcNAc", "summary_of_the_method": "as §1"}, "[22]": {"biological_target": "Neu5Ac(a2-3)Gal(b1-3)GlcNAc(b1-3)GalNAc", "summary_of_the_method": "as §1"}, "[23]": {"biological_target": "Neu5Ac(a2-3)Gal(b1-3)GlcNAc(b1-4)Gal(b1-4)Glc", "summary_of_the_method": "as §1"}, "[24]": {"biological_target": "Neu5Ac(a2-3)Gal(b1-3)GlcNAc(b1-6)GalNAc", "summary_of_the_method": "as §1"}, "[25]": {"biological_target": "Neu5Ac(a2-3)Gal(b1-3)GlcNAc6S", "summary_of_the_method": "as §1"}, "[26]": {"biological_target": "Neu5Ac(a2-3)Gal(b1-3)[Fuc(a1-4)]GlcNAc", "summary_of_the_method": "as §1"}, "[27]": {"biological_target": "Neu5Ac(a2-3)Gal(b1-3)[Fuc(a1-4)]GlcNAc(b1-3)Gal(b1-3)[Fuc(a1-4)]GlcNAc", "summary_of_the_method": "as §1"}, "[28]": {"biological_target": "Neu5Ac(a2-3)Gal(b1-3)[Fuc(a1-4)]GlcNAc(b1-3)Gal(b1-4)[Fuc(a1-3)]GlcNAc", "summary_of_the_method": "as §1"}, "[29]": {"biological_target": "Neu5Ac(a2-3)Gal(b1-3)[GlcNAc(b1-6)]GalNAc", "summary_of_the_method": "as §1"}, "[30]": {"biological_target": "Neu5Ac(a2-3)Gal(b1-3)[Neu5Ac(a2-6)]GalNAc", "summary_of_the_method": "as §1"}, "[31]": {"biological_target": "Neu5Ac(a2-3)Gal(b1-3)[Neu5Ac(a2-6)]GlcNAc(b1-3)[Fuc(a1-3)[Gal(b1-4)]GlcNAc(b1-6)]Gal(b1-4)Glc", "summary_of_the_method": "as §1"}, "[32]": {"biological_target": "Neu5Ac(a2-3)Gal(b1-3)]Neu5Ac(a2-3)Gal(b1-4)]GlcNAc", "summary_of_the_method": "as §1"}},
  "note": "Some of the results follow.",
  "data": [
    {"binder": "Cohesin-marm-DC-ASGPR-CRD (protein) LDITSHHHHHHDDLDAVRIKVDTVNAKPGDTVRIPVRFSGIPSKGIANCDFVYSYDPNVLEIIEIEPGDIIVDPNPDKSFDTAVYPDRKIIVFLFAEDSGTGAYAITKDGVFATIVAKVKEGAPNGLSVIKFVEVGGFANNDLVEQKTQFFDGGVNVGDTTEPATPTTPVTTPTTTDDLDAASCPINWVEHQGSCYWFSRSGKTWPEAERYCQLENTHLVVINSREEQNFVQAHLGSAYTWMGLSDPEGVWKWVDGTDYSSGFQNWKPGQPDDWQGHGLGGGEDCAHFHPDGRWNDDVCQRSYHWVCEAGLTQASQDSH", "values": [
      {"measurement": "glycan array binding signal (z-score)", "setting": "[1]", "result": -0.444},
      {"measurement": "glycan array binding signal (z-score)", "setting": "[2]", "result": -0.353},
      {"measurement": "glycan array binding signal (z-score)", "setting": "[3]", "result": -0.44},
      {"measurement": "glycan array binding signal (z-score)", "setting": "[4]", "result": -0.416},
      {"measurement": "glycan array binding signal (z-score)", "setting": "[5]", "result": -0.449},
      {"measurement": "glycan array binding signal (z-score)", "setting": "Man(a1-3)[Man(a1-6)]Man", "result": -0.423},
      {"measurement": "glycan array binding signal (z-score)", "setting": "[6]", "result": -0.392},
      {"measurement": "glycan array binding signal (z-score)", "setting": "[7]", "result": -0.365},
      {"measurement": "glycan array binding signal (z-score)", "setting": "[8]", "result": -0.452},
      {"measurement": "glycan array binding signal (z-score)", "setting": "[9]", "result": -0.451},
      {"measurement": "glycan array binding signal (z-score)", "setting": "[10]", "result": -0.445},
      {"measurement": "glycan array binding signal (z-score)", "setting": "Man(a1-6)Man", "result": 0.554},
      {"measurement": "glycan array binding signal (z-score)", "setting": "Man(b1-4)GlcNAc", "result": -0.422},
      {"measurement": "glycan array binding signal (z-score)", "setting": "MurNAc(b1-4)GlcNAc", "result": -0.439},
      {"measurement": "glycan array binding signal (z-score)", "setting": "Neu5Ac(a2-3)Gal", "result": -0.408},
      {"measurement": "glycan array binding signal (z-score)", "setting": "[11]", "result": -0.428},
      {"measurement": "glycan array binding signal (z-score)", "setting": "[12]", "result": -0.415},
      {"measurement": "glycan array binding signal (z-score)", "setting": "[13]", "result": -0.433},
      {"measurement": "glycan array binding signal (z-score)", "setting": "[14]", "result": -0.362},
      {"measurement": "glycan array binding signal (z-score)", "setting": "[15]", "result": -0.363},
      {"measurement": "glycan array binding signal (z-score)", "setting": "[16]", "result": -0.429},
      {"measurement": "glycan array binding signal (z-score)", "setting": "[17]", "result": -0.344},
      {"measurement": "glycan array binding signal (z-score)", "setting": "[18]", "result": -0.439},
      {"measurement": "glycan array binding signal (z-score)", "setting": "[19]", "result": -0.376},
      {"measurement": "glycan array binding signal (z-score)", "setting": "[20]", "result": -0.433},
      {"measurement": "glycan array binding signal (z-score)", "setting": "[21]", "result": -0.449},
      {"measurement": "glycan array binding signal (z-score)", "setting": "[22]", "result": -0.439},
      {"measurement": "glycan array binding signal (z-score)", "setting": "[23]", "result": -0.449},
      {"measurement": "glycan array binding signal (z-score)", "setting": "[24]", "result": 2.55},
      {"measurement": "glycan array binding signal (z-score)", "setting": "[25]", "result": -0.341},
      {"measurement": "glycan array binding signal (z-score)", "setting": "[26]", "result": -0.426},
      {"measurement": "glycan array binding signal (z-score)", "setting": "[27]", "result": 0.142},
      {"measurement": "glycan array binding signal (z-score)", "setting": "[28]", "result": -0.107},
      {"measurement": "glycan array binding signal (z-score)", "setting": "[29]", "result": -0.455},
      {"measurement": "glycan array binding signal (z-score)", "setting": "[30]", "result": -0.074},
      {"measurement": "glycan array binding signal (z-score)", "setting": "[31]", "result": -0.447},
      {"measurement": "glycan array binding signal (z-score)", "setting": "[32]", "result": -0.415}
    ]}
  ]
}
